Experimental findings from article PMC12820563, “FoxP3 forms a head-to-head dimer in vivo and stabilizes its multimerization on adjacent microsatellites” are described below.

Some of the results follow.

The assay concerns the target T1, MBP-FoxP1dN (Mus musculus, UniProt P58462 326-579).
T1 sequence: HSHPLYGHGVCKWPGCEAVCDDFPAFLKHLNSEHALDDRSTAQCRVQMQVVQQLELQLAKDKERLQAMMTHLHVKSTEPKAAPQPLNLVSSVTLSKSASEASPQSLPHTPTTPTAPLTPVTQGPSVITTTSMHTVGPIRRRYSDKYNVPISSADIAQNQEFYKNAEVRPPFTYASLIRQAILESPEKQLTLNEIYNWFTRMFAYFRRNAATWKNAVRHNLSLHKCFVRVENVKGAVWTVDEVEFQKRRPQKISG
The assay is described as follows: PD-seq (MBP pull-down with sequencing); 20 mM Tris-HCl pH 7.5, 100 mM NaCl, 1.5 mM MgCl2, 0.4 uM protein, 0.1 uM dsDNA library, 30 min, room temperature, amylose pull-down; high values mean tight binding. The conditions noted are these: protein: recombinant; tags: His6-MBP; chain copies: 2; dsDNA, one strand shown. A digest of the protocol: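 His6-MBP-tagged mouse FoxP3 or FoxP1 fragment lacking the N-terminus, expressed in E. coli, was mixed at 0.4 µM with 0.1 µM Klenow-filled double-stranded degenerate DNA library. Incubation was 30 min at room temperature in Tris pH 7.5 buffer with NaCl and MgCl2. Complexes were caught on amylose resin and washed three times; DNA was released with proteinase K, PCR-barcoded and Illumina-sequenced. Binding is reads-per-million enrichment, pull-down over input, with replicates pooled.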
For “GATGATTGTTCTCCCAGCTGATGAATTGTAAGTCTCGAGTAAACAAATTTTCCTAATCTTTCTGTTCAAGCGCCATCTAC”, the binding signal is 0.976 RPM ratio (pull-down/input).

As for “GATGATTGTTCTCCCAGCTGATGAATTACGCAGTTCGAGTAAACAAATTTTCCTAATCTTTCTGTTCAAGCGCCATCTAC”, the binding signal is 1.03 RPM ratio (pull-down/input).

For “GATGATTGTTCTCCCAGCTGATGAATTGGTATATTCGAGTAAACAAATTTTCCTAATCTTTCTGTTCAAGCGCCATCTAC”, the binding signal was 1.24 RPM ratio (pull-down/input).

Regarding “GATGATTGTTCTCCCAGCTGATGAATTAGGCGTTTCGAGTAAACAAATTTTCCTAATCTTTCTGTTCAAGCGCCATCTAC”, the binding signal was 0.871 RPM ratio (pull-down/input).

For the sequence “GATGATTGTTCTCCCAGCTGATGAATTGGCGTTATCGAGTAAACAAATTTTCCTAATCTTTCTGTTCAAGCGCCATCTAC”, the binding signal is 1 RPM ratio (pull-down/input).

Turning to “GATGATTGTTCTCCCAGCTGATGAATTTGGTTGGTCGAGTAAACAAATTTTCCTAATCTTTCTGTTCAAGCGCCATCTAC”, the binding signal is 0.868 RPM ratio (pull-down/input).

Take “GATGATTGTTCTCCCAGCTGATGAATTGTCGTACTCGAGTAAACAAATTTTCCTAATCTTTCTGTTCAAGCGCCATCTAC”: the binding signal was 1.07 RPM ratio (pull-down/input).

For “GATGATTGTTCTCCCAGCTGATGAATTCGTCTCATCGAGTAAACAAATTTTCCTAATCTTTCTGTTCAAGCGCCATCTAC”, the binding signal was 0.908 RPM ratio (pull-down/input).

With “GATGATTGTTCTCCCAGCTGATGAATTATAACGCTCGAGTAAACAAATTTTCCTAATCTTTCTGTTCAAGCGCCATCTAC”, the binding signal is 0.983 RPM ratio (pull-down/input).

Take “GATGATTGTTCTCCCAGCTGATGAATTATCCCCCTCGAGTAAACAAATTTTCCTAATCTTTCTGTTCAAGCGCCATCTAC”: the binding signal is 0.87 RPM ratio (pull-down/input).

“GATGATTGTTCTCCCAGCTGATGAATTGCAGGTCTCGAGTAAACAAATTTTCCTAATCTTTCTGTTCAAGCGCCATCTAC”: the binding signal is 0.975 RPM ratio (pull-down/input).

Turning to “GATGATTGTTCTCCCAGCTGATGAATTGCGGTGCTCGAGTAAACAAATTTTCCTAATCTTTCTGTTCAAGCGCCATCTAC”, the binding signal was 0.929 RPM ratio (pull-down/input).

Take “GATGATTGTTCTCCCAGCTGATGAATTGCCCCGCTCGAGTAAACAAATTTTCCTAATCTTTCTGTTCAAGCGCCATCTAC”: the binding signal was 0.861 RPM ratio (pull-down/input).

As to “GATGATTGTTCTCCCAGCTGATGAATTATACTGGTCGAGTAAACAAATTTTCCTAATCTTTCTGTTCAAGCGCCATCTAC”, the binding signal was 1.03 RPM ratio (pull-down/input).

For “GATGATTGTTCTCCCAGCTGATGAATTGGGTGTCTCGAGTAAACAAATTTTCCTAATCTTTCTGTTCAAGCGCCATCTAC”, the binding signal was 0.801 RPM ratio (pull-down/input).

Turning to “GATGATTGTTCTCCCAGCTGATGAATTGGTCTGCTCGAGTAAACAAATTTTCCTAATCTTTCTGTTCAAGCGCCATCTAC”, the binding signal was 0.784 RPM ratio (pull-down/input).

Turning to “GATGATTGTTCTCCCAGCTGATGAATTTTTTTACTCGAGTAAACAAATTTTCCTAATCTTTCTGTTCAAGCGCCATCTAC”, the binding signal was 0.958 RPM ratio (pull-down/input).

Regarding “GATGATTGTTCTCCCAGCTGATGAATTTCTCCCATCGAGTAAACAAATTTTCCTAATCTTTCTGTTCAAGCGCCATCTAC”, the binding signal is 0.923 RPM ratio (pull-down/input).

Turning to “GATGATTGTTCTCCCAGCTGATGAATTGTCTTTGTCGAGTAAACAAATTTTCCTAATCTTTCTGTTCAAGCGCCATCTAC”, the binding signal was 1.17 RPM ratio (pull-down/input).

Consider “GATGATTGTTCTCCCAGCTGATGAATTATGGATATCGAGTAAACAAATTTTCCTAATCTTTCTGTTCAAGCGCCATCTAC”, for which the binding signal is 1.07 RPM ratio (pull-down/input).

As for “GATGATTGTTCTCCCAGCTGATGAATTCATCATTTCGAGTAAACAAATTTTCCTAATCTTTCTGTTCAAGCGCCATCTAC”, the binding signal is 0.999 RPM ratio (pull-down/input).

For “GATGATTGTTCTCCCAGCTGATGAATTGGTAGACTCGAGTAAACAAATTTTCCTAATCTTTCTGTTCAAGCGCCATCTAC”, the binding signal was 0.832 RPM ratio (pull-down/input).

In the case of “GATGATTGTTCTCCCAGCTGATGAATTAGAGGCGTCGAGTAAACAAATTTTCCTAATCTTTCTGTTCAAGCGCCATCTAC”, the binding signal was 1.11 RPM ratio (pull-down/input).

Regarding “GATGATTGTTCTCCCAGCTGATGAATTACCGCCGTCGAGTAAACAAATTTTCCTAATCTTTCTGTTCAAGCGCCATCTAC”, the binding signal is 0.907 RPM ratio (pull-down/input).

In the case of “GATGATTGTTCTCCCAGCTGATGAATTTGGAATTTCGAGTAAACAAATTTTCCTAATCTTTCTGTTCAAGCGCCATCTAC”, the binding signal is 0.923 RPM ratio (pull-down/input).

Turning to “GATGATTGTTCTCCCAGCTGATGAATTGACGGGGTCGAGTAAACAAATTTTCCTAATCTTTCTGTTCAAGCGCCATCTAC”, the binding signal is 0.844 RPM ratio (pull-down/input).

With “GATGATTGTTCTCCCAGCTGATGAATTAGCACCATCGAGTAAACAAATTTTCCTAATCTTTCTGTTCAAGCGCCATCTAC”, the binding signal was 0.966 RPM ratio (pull-down/input).

Turning to “GATGATTGTTCTCCCAGCTGATGAATTATTCATATCGAGTAAACAAATTTTCCTAATCTTTCTGTTCAAGCGCCATCTAC”, the binding signal was 1.19 RPM ratio (pull-down/input).

“GATGATTGTTCTCCCAGCTGATGAATTAATGTATTCGAGTAAACAAATTTTCCTAATCTTTCTGTTCAAGCGCCATCTAC”: the binding signal is 1.47 RPM ratio (pull-down/input).

As to “GATGATTGTTCTCCCAGCTGATGAATTCTGGCACTCGAGTAAACAAATTTTCCTAATCTTTCTGTTCAAGCGCCATCTAC”, the binding signal is 0.805 RPM ratio (pull-down/input).

In the case of “GATGATTGTTCTCCCAGCTGATGAATTTGTTAACTCGAGTAAACAAATTTTCCTAATCTTTCTGTTCAAGCGCCATCTAC”, the binding signal is 1.28 RPM ratio (pull-down/input).
